Data from the RNAGym collection of RNA variant scans (doi:10.7554/elife.90254).
The source gives no read counts; variants with many changes may rest on few reads.

B1: LINE1-mini (parent)
chain: GGCAGAGCUCAACACAGCGUGGCAAAGUGGCUGUGGCUAGACUGCC

Variants of: B1
Test: self-cleavage, relative activity (ratio to wild type); higher = more cleavage; in vitro, sequencing; the parent is a self-cleaving ribozyme
UCCAGAGCUAACCACAGAGUGGCAAAGUGGCUGUGGCUAGACUGCC [G1U G2C C10A A12C C18A] showed a self-cleavage of 0.01.
For UCCAGAGCUAAACACUGCGUGGUAGAGUGGCUGUGACUAGACUGCC [G1U G2C C10A A16U C23U A25G G36A], the self-cleavage was 0.01.
With UCCAAAACUCAACACAUCGUGGCAAAGUGGCUGUGACUAGACUGCC [G1U G2C G5A G7A G17U G36A] the self-cleavage was 0.1.
UCCAGAUCUCAACACAGCGUGGCAAAGUGGCUGUGGCUAGACUACC [G1U G2C G7U G44A] gave a self-cleavage of 0.04.
For UCCAGAGCUCAACACAGCGUGACAAAGUAGCUGUGGCUAGACUGCC [G1U G2C G22A G29A], the self-cleavage was 0.12.
UCCAGAGCUCAACACAGCGAGGCAAAGUGGCUGUGGCUAGACUGCC [G1U G2C U20A] showed a self-cleavage of 0.07.
With UUCGGACCUCAACACAGCGUGGCAAAGUGGCUGUGGCUAGACUGCC [G1U G2U A4G G7C] the self-cleavage was 0.14.
With UUCUGAGCUCAACACAGCACGGCAAAGUGGCUUUGGCGAGACUGGC [G1U G2U A4U G19A U20C G33U U38G C45G] the self-cleavage was 0.03.
With UUCUGAGCUCAACACAGCGUGGCAAAGUGACUGUAGCUAGACUUCC [G1U G2U A4U G30A G35A G44U] the self-cleavage was 0.04.
Variant UUCAGAGCUCAACGCAGCGUGGCAAAGUGGCUGUGGCUAGACUGCC [G1U G2U A14G] has a self-cleavage of 0.02.
With UUCAGAGCUCAACACAGCGUGGCAAAGUGGCUGUGGCUUGACUGCC [G1U G2U A39U] the self-cleavage was 0.05.
Work on UUAAGAGCUCAACACAGCGUGGCAAAGUGGCUGUGGCUAGACUGCC [G1U G2U C3A] yielded a self-cleavage of 0.74.
UUCAGAGAUCAAGACAGCGUGGCAAAGUGGCUGUGGCUAGAAUGCC [G1U G2U C8A C13G C42A] showed a self-cleavage of 0.1.
Work on UUCAGAGCUCAACACAGCGUGGCAAAGUGGUUGUGGCUAGACUGCC [G1U G2U C31U] yielded a self-cleavage of 0.02.
Work on UUCACAGCCCAACACAGCGUGGCAAAGUCGCUGCGGCUAGCCUGCC [G1U G2U G5C U9C G29C U34C A41C] yielded a self-cleavage of 0.01.
Variant UUCAGAAAUCAACACAGCGUGGCAAAGUGGCUGUGGCUAGACUGCC [G1U G2U G7A C8A] has a self-cleavage of 0.
Variant UUCAGAGCUCAACACAGCAUGGCAAAGUGUCUGUGGCUAGACUGCC [G1U G2U G19A G30U] has a self-cleavage of 0.07.
UGCAAGGGUCAACACAGCGUGGCAAAGUUGCUGUGGCUAGACUACC [G1U G5A A6G C8G G29U G44A] showed a self-cleavage of 0.02.
Variant UGCAAAGCUCUACACAGCGUGGCAAAAUGGCUGUGGUUAGACUGCC [G1U G5A A11U G27A C37U] has a self-cleavage of 0.
For UGCAAAGCUCAACGCAGCGUGGCAAAGUGGCUGUGGCUAGACUGCC [G1U G5A A14G], the self-cleavage was 0.22.
For UGCAAAGCUCAACACAGCGUGGCAAAGUGGCUGUGGCUAGGCUGCC [G1U G5A A41G], the self-cleavage was 0.03.
Work on UGCAAAGGUCAACACAGUGUGGAAAAGUUGCUGUUGCUAGACUGUC [G1U G5A C8G C18U C23A G29U G35U C45U] yielded a self-cleavage of 0.03.
For UGCAAAGCUCAAAACAGCGUGGCAAAGUGGCUGUGUCUAGACUGCC [G1U G5A C13A G36U], the self-cleavage was 0.06.
Work on UGCAAAGCUCAACACAGAGUGGCAAAGUGGCUGUGGCUAGACUGAC [G1U G5A C18A C45A] yielded a self-cleavage of 0.08.
Work on UGCAAAGCUCAACACAGUGUGCCAAAGUGGACUUGGCUAGACUUCC [G1U G5A C18U G22C C31A U32C G33U G44U] yielded a self-cleavage of 0.03.
Work on UGCAAAGCUCAACACAGCGUGGAAUAGUGGCUGUGGCUAGACUGCC [G1U G5A C23A A25U] yielded a self-cleavage of 0.23.
For UGCAAAGCUCAACACAGCGUGGCAAAGUGGCUGUGGCUAGACUGCA [G1U G5A C46A], the self-cleavage was 0.18.
Work on UGCAAAUCUCAACACAGCGUGGCAAAGUGGCGGUGGCUAGACUGUC [G1U G5A G7U U32G C45U] yielded a self-cleavage of 0.12.
For UGCAAAGCUCAACACACCGUGGCAACGUGGCUGUGGCUAGACUGCC [G1U G5A G17C A26C], the self-cleavage was 0.41.
UGCAAAGCUCAACACAGCGUGGCAAAGUAGCUGUGGCUAGACUGCC [G1U G5A G29A] showed a self-cleavage of 0.41.
With UGCAAAGCUCAACACAGCGUGGCAAAGUAGAUGUGGCUAAACUGCC [G1U G5A G29A C31A G40A] the self-cleavage was 0.01.
In the case of UGCAAAGCUCAACACAGCGUGGCAAAGUGGCUGUAGCUAGACUGCC [G1U G5A G35A], the self-cleavage is reported as 0.17.
With UGCAAAGCUCAACACAGCGUGGCAAAGUGGCUGUUGCUUGACUGCC [G1U G5A G35U A39U] the self-cleavage was 0.2.
UGCAAAGCUCAACACAGCGGGGCAAAGUGGCUGUGGCUAGAUUGCC [G1U G5A U20G C42U] showed a self-cleavage of 0.12.
For UGCACUGCUCAACACAGCGUGGCAAAGUGGCUGUGGCUAGACUUCC [G1U G5C A6U G44U], the self-cleavage was 0.08.
Work on UGCACAGCUCCACACAGCGUGCUAAAGUGGCUGUGGCUAGACUGCC [G1U G5C A11C G22C C23U] yielded a self-cleavage of 0.
Variant UGCACAGCUCAACUCAGCGUGGCAAAGUGGCUGUGGCUAGACUGCC [G1U G5C A14U] has a self-cleavage of 0.04.
For UGCACAGCUCAACACUGCGUGGCAAAGUGGCUGUGGCUACACUGCC [G1U G5C A16U G40C], the self-cleavage was 0.03.
Work on UGCACAGCUCAAAACAGCGUGGCAAAGUGGCUGUGGCUAAACUGCC [G1U G5C C13A G40A] yielded a self-cleavage of 0.01.
Variant UGCACAGCUCAACACAGUGUGGAAAAGUGGCUGUGGCUAGACUGCC [G1U G5C C18U C23A] has a self-cleavage of 0.02.
With UGCACAGCUCAACACAGCGUGGCAAAGUGGCUGUGGAUAGACUGCA [G1U G5C C37A C46A] the self-cleavage was 0.01.
Variant UGCACAACUCAACACAGCGUGGCAAAGUGGCUGUGGCUAGACUGCC [G1U G5C G7A] has a self-cleavage of 0.43.
UGCACAGCUCAACACAGCCCGGCAAAGUGGCUGUGGCUAGACGGCC [G1U G5C G19C U20C U43G] gave a self-cleavage of 0.
UGCACAGCUCAACACAGCGUCCCAAAGUCGCUGUGGCUAGACUGCA [G1U G5C G21C G22C G29C C46A] gave a self-cleavage of 0.02.
Work on UGCACAGCUCAACACAGCGUUGCAAAGUGGCUGUGGCUACACUGCC [G1U G5C G21U G40C] yielded a self-cleavage of 0.01.
Work on UGCACAGCUCAACACAGCGUGGCAAAGUCGCUGUGGAUAGACUGCC [G1U G5C G29C C37A] yielded a self-cleavage of 0.04.
UGCACAGCUCAACACAGCGUGGCAAAGGGGUUGUGGCUAGACUGCC [G1U G5C U28G C31U] showed a self-cleavage of 0.02.
UGCAUCGCUCAACACAGCGUCGCAAAGUGGCUGUGGCUAGACUGCC [G1U G5U A6C G21C] showed a self-cleavage of 0.07.
For UGCAUGGCUCAACACAGCGUGGGAAAGUGGCUGUAGCUAAACUCCC [G1U G5U A6G C23G G35A G40A G44C], the self-cleavage was 0.01.
Work on UGCAUAGCUCAGCACAGCGUGGCAAAGUGGCUGUGGCUAGACUACC [G1U G5U A12G G44A] yielded a self-cleavage of 0.02.
For UGCAUAGCUCAUCACAGCGUGGCAAAGUGGCUGUGGCUAGACUGCC [G1U G5U A12U], the self-cleavage was 0.05.
Work on UGCAUAGCUCAACCCAACGUGGCAAAGUGGCUGUGGCUAGACUGCC [G1U G5U A14C G17A] yielded a self-cleavage of 0.01.
UGCAUAGCUCAACACAGCGUGGCGAAGUCGCUGUGGCUAGACUGCC [G1U G5U A24G G29C] showed a self-cleavage of 0.02.
Work on UGCAUAGCUCAACACAGCGUGGCAUAGUGGCUGUGGCUAGACUGCC [G1U G5U A25U] yielded a self-cleavage of 0.11.
UGCAUAGCUCAACACAGCGUGGCAUAGUGGCUGUGGCUAGACUUCC [G1U G5U A25U G44U] gave a self-cleavage of 0.05.
In the case of UGCAUAGCUAAACACAGCGUGGCAAAGUGGCUGUGGCGAGACUGCC [G1U G5U C10A U38G], the self-cleavage is reported as 0.01.
